T1: RBFOX1 RRM (Homo sapiens, UniProt Q9NWB1 109-208)
T1 sequence: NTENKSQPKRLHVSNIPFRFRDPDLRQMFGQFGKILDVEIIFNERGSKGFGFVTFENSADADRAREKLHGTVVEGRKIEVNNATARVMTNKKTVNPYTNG

B1: AAUUGAG (DNA:RNA)
RNA: GGGAGACCGGAAUUCAGAUUGUCCAAUUGAGUUAAAUCCCGUCGUAGCCACCA
DNA 1: CAATCTGAATTCCGGTCTCCC
DNA 2: TGGTGGCTACGACGGGATT
B2: UGACCGC (DNA:RNA)
RNA: GGGAGACCGGAAUUCAGAUUGUCCUGACCGCUUAAAUCCCGUCGUAGCCACCA
DNA 1: CAATCTGAATTCCGGTCTCCC
DNA 2: TGGTGGCTACGACGGGATT
B3: AUUAACU (DNA:RNA)
RNA: B1 RNA with A26U, U28A, G29A, A30C, G31U
DNA 1: CAATCTGAATTCCGGTCTCCC
DNA 2: TGGTGGCTACGACGGGATT
B4: AGUGAAC (DNA:RNA)
RNA: B1 RNA with A26G, U28G, G29A, G31C
DNA 1: CAATCTGAATTCCGGTCTCCC
DNA 2: TGGTGGCTACGACGGGATT
B5: GACGAUG (DNA:RNA)
RNA: B1 RNA with A25G, U27C, U28G, G29A, A30U
DNA 1: CAATCTGAATTCCGGTCTCCC
DNA 2: TGGTGGCTACGACGGGATT
B6: CGGGCGA (DNA:RNA)
RNA: B2 RNA with U25C, A27G, C28G, C31A
DNA 1: CAATCTGAATTCCGGTCTCCC
DNA 2: TGGTGGCTACGACGGGATT
B7: GAACUUA (DNA:RNA)
RNA: B2 RNA with U25G, G26A, C29U, G30U, C31A
DNA 1: CAATCTGAATTCCGGTCTCCC
DNA 2: TGGTGGCTACGACGGGATT
B8: UCCUAUA (DNA:RNA)
RNA: B1 RNA with A25U, A26C, U27C, G29A, A30U, G31A
DNA 1: CAATCTGAATTCCGGTCTCCC
DNA 2: TGGTGGCTACGACGGGATT
B9: CACUACG (DNA:RNA)
RNA: B1 RNA with A25C, U27C, G29A, A30C
DNA 1: CAATCTGAATTCCGGTCTCCC
DNA 2: TGGTGGCTACGACGGGATT
B10: GGUGGUC (DNA:RNA)
RNA: B1 RNA with A25G, A26G, U28G, A30U, G31C
DNA 1: CAATCTGAATTCCGGTCTCCC
DNA 2: TGGTGGCTACGACGGGATT
B11: CAUUCUG (DNA:RNA)
RNA: B1 RNA with A25C, G29C, A30U
DNA 1: CAATCTGAATTCCGGTCTCCC
DNA 2: TGGTGGCTACGACGGGATT
B12: GUGUACG (DNA:RNA)
RNA: B1 RNA with A25G, A26U, U27G, G29A, A30C
DNA 1: CAATCTGAATTCCGGTCTCCC
DNA 2: TGGTGGCTACGACGGGATT
B13: GGAAAUU (DNA:RNA)
RNA: B2 RNA with U25G, C28A, C29A, G30U, C31U
DNA 1: CAATCTGAATTCCGGTCTCCC
DNA 2: TGGTGGCTACGACGGGATT
B14: AUCUCGG (DNA:RNA)
RNA: B1 RNA with A26U, U27C, G29C, A30G
DNA 1: CAATCTGAATTCCGGTCTCCC
DNA 2: TGGTGGCTACGACGGGATT
B15: CUAUGUG (DNA:RNA)
RNA: B1 RNA with A25C, A26U, U27A, A30U
DNA 1: CAATCTGAATTCCGGTCTCCC
DNA 2: TGGTGGCTACGACGGGATT
B16: AAGCGCU (DNA:RNA)
RNA: B1 RNA with U27G, U28C, A30C, G31U
DNA 1: CAATCTGAATTCCGGTCTCCC
DNA 2: TGGTGGCTACGACGGGATT
B17: GGAGGAG (DNA:RNA)
RNA: B1 RNA with A25G, A26G, U27A, U28G
DNA 1: CAATCTGAATTCCGGTCTCCC
DNA 2: TGGTGGCTACGACGGGATT
B18: CAUCUAA (DNA:RNA)
RNA: B1 RNA with A25C, U28C, G29U, G31A
DNA 1: CAATCTGAATTCCGGTCTCCC
DNA 2: TGGTGGCTACGACGGGATT
B19: AUAAGUC (DNA:RNA)
RNA: B1 RNA with A26U, U27A, U28A, A30U, G31C
DNA 1: CAATCTGAATTCCGGTCTCCC
DNA 2: TGGTGGCTACGACGGGATT
B20: ACUCCGC (DNA:RNA)
RNA: B2 RNA with U25A, G26C, A27U
DNA 1: CAATCTGAATTCCGGTCTCCC
DNA 2: TGGTGGCTACGACGGGATT
B21: UCAACGG (DNA:RNA)
RNA: B2 RNA with G26C, C28A, C31G
DNA 1: CAATCTGAATTCCGGTCTCCC
DNA 2: TGGTGGCTACGACGGGATT
B22: GCCUUCA (DNA:RNA)
RNA: B1 RNA with A25G, A26C, U27C, G29U, A30C, G31A
DNA 1: CAATCTGAATTCCGGTCTCCC
DNA 2: TGGTGGCTACGACGGGATT
B23: CCUUGAC (DNA:RNA)
RNA: B1 RNA with A25C, A26C, G31C
DNA 1: CAATCTGAATTCCGGTCTCCC
DNA 2: TGGTGGCTACGACGGGATT
B24: CAAGCAA (DNA:RNA)
RNA: B1 RNA with A25C, U27A, U28G, G29C, G31A
DNA 1: CAATCTGAATTCCGGTCTCCC
DNA 2: TGGTGGCTACGACGGGATT
B25: GAGACAG (DNA:RNA)
RNA: B1 RNA with A25G, U27G, U28A, G29C
DNA 1: CAATCTGAATTCCGGTCTCCC
DNA 2: TGGTGGCTACGACGGGATT
B26: GGCCUUA (DNA:RNA)
RNA: B2 RNA with U25G, A27C, C29U, G30U, C31A
DNA 1: CAATCTGAATTCCGGTCTCCC
DNA 2: TGGTGGCTACGACGGGATT
B27: AGAUGCG (DNA:RNA)
RNA: B1 RNA with A26G, U27A, A30C
DNA 1: CAATCTGAATTCCGGTCTCCC
DNA 2: TGGTGGCTACGACGGGATT
B28: CCACCAU (DNA:RNA)
RNA: B2 RNA with U25C, G26C, G30A, C31U
DNA 1: CAATCTGAATTCCGGTCTCCC
DNA 2: TGGTGGCTACGACGGGATT
B29: CAAGGAG (DNA:RNA)
RNA: B1 RNA with A25C, U27A, U28G
DNA 1: CAATCTGAATTCCGGTCTCCC
DNA 2: TGGTGGCTACGACGGGATT
B30: CUUCUAG (DNA:RNA)
RNA: B1 RNA with A25C, A26U, U28C, G29U
DNA 1: CAATCTGAATTCCGGTCTCCC
DNA 2: TGGTGGCTACGACGGGATT
B31: ACCAUCU (DNA:RNA)
RNA: B1 RNA with A26C, U27C, U28A, G29U, A30C, G31U
DNA 1: CAATCTGAATTCCGGTCTCCC
DNA 2: TGGTGGCTACGACGGGATT

Residue numbers refer to the chain shown, from its start. The list shows a part of the results.

The assay has as its target T1, RBFOX1 RRM. The experiment in a line: EMSA; HiTS-Eq, 1 nM pool, 10 min; buffer printed only for the single-RNA assays: 10 mM Tris pH 7.5, 150 mM NaCl, 3.4 mM EDTA, 0.001% NP-40, 30 C. The following applies: tags: His6 N-terminal (pET28a); label: 5' 32P. The gist of the method:
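Purified RbFox RRM (wild type or mutant) was equilibrated for 10 min in 50 µL with 1 nM of a 5′-radiolabelled pool of RNA with 7 randomized nucleotides, its flanks annealed to DNA oligonucleotides, across increasing protein concentrations. Free RNA was separated by 8% native PAGE, excised, reverse-transcribed, PCR-barcoded and sequenced on an Illumina HiSeq 2500. Relative association constants came from read-count changes of each variant against the control reaction, normalised to the cognate motif.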
On the technique in general: Mobility shift assays separate free from complexed probe on a gel.
For B1, the binding signal is 0.014 KA relative to UGCAUGU.
To B2 belongs 0.0146 KA relative to UGCAUGU; to B3, 0.00102 KA relative to UGCAUGU.
To B4 belongs 0.0126 KA relative to UGCAUGU; to B5, 0.0266 KA relative to UGCAUGU.
To B6 belongs 0.0269 KA relative to UGCAUGU; to B7, 0.00145 KA relative to UGCAUGU.
Regarding B8, the binding signal is 0.00228 KA relative to UGCAUGU.
B9: the binding signal was 0.0044 KA relative to UGCAUGU.
To B10 belongs 0.0123 KA relative to UGCAUGU; to B11, 0.0143 KA relative to UGCAUGU; to B12, 0.0131 KA relative to UGCAUGU.
For B13 the value was 0.0113 KA relative to UGCAUGU.
For B14 the value was 0.00679 KA relative to UGCAUGU.
Take B15: the binding signal is 0.018 KA relative to UGCAUGU.
For B16 the value was 0.00686 KA relative to UGCAUGU; for B17, 0.0159 KA relative to UGCAUGU.
To B18 belongs 0.0007 KA relative to UGCAUGU; to B19, 0.00397 KA relative to UGCAUGU; to B20, 0.00478 KA relative to UGCAUGU.
For B21 the value was 0.00716 KA relative to UGCAUGU; for B22, 0.00904 KA relative to UGCAUGU; for B23, 0.0113 KA relative to UGCAUGU.
Consider B24, for which the binding signal is 0.00166 KA relative to UGCAUGU.
For the molecule B25, the binding signal was 0.0106 KA relative to UGCAUGU.
To B26 belongs 0.00694 KA relative to UGCAUGU; to B27, 0.013 KA relative to UGCAUGU; to B28, 0.000756 KA relative to UGCAUGU.
For B29 the value was 0.00606 KA relative to UGCAUGU; for B30, 0.00709 KA relative to UGCAUGU; for B31, 0.000184 KA relative to UGCAUGU.

The values above are taken from article PMC9911399, “Two distinct binding modes provide the RNA-binding protein RbFox with extraordinary sequence specificity”.
